Out of some 200,000 compounds screened, about 4,500 (2.2%) were called active. Inconclusive means that the source gave no clear call. Such entries were picked first, then a sample of the others. Calls come from the whole dose curve; as a rule, active = well fitted inhibition curve with a large enough effect; inconclusive = small, poorly fitted or top-dose-only effect, or effect the other way; inactive = flat fitted curve, though single readings scatter. A potency beside an inconclusive call is a rough fit, not a confirmed value.
The molecules below were run against Cruzipain (Trypanosoma cruzi) (UniProt P25779) (assay: qHTS Assay for Promiscuous and Specific Inhibitors of Cruzain (without detergent)). Settings: purified cruzain, Z-FR-AMC fluorescence, no detergent.
Chain of UniProt P25779 (P25779 whole entry, looked up): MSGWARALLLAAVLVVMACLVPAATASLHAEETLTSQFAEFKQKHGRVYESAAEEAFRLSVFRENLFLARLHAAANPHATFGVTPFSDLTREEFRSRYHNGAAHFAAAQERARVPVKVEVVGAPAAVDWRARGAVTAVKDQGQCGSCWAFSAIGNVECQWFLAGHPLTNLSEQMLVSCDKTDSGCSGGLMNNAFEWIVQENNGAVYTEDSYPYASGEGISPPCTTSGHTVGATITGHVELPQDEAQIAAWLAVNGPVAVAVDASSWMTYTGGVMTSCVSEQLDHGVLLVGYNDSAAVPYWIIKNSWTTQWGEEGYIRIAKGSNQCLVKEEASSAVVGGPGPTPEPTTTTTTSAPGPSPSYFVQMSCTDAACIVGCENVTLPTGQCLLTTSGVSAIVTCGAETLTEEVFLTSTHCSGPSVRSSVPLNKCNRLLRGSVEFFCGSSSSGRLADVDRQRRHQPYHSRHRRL
Outline: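 Detergent-free condition (0.00005% Triton X-100) in acetate buffer pH 5.5 with DTT. 1.5 nM enzyme and compound were pre-mixed 15 min, then 2 uM Z-FR-AMC substrate added; reaction progress from fluorescence change between first and third reads (60 s).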
Note: nearly all actives have a fitted effect of over 40% in size.
Potency is the fitted concentration of half-maximal effect; tags give direction and shape of the fitted curve.
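Throughout, for max response, negative = inhibition: plate controls were enzyme without inhibitor for no effect and buffer without enzyme for full effect.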

| Compound | Potency | max response, negative = inhibition |
| --- | --- | --- |
| COc1ccc(Nc2c(-c3ccc(Cl)cc3)nc3cnccn23)cc1OC | inconclusive: 39.8 µM [activator, single point] | – |
| COc1cc(Cn2c(N)c(C#N)c3nc4ccccc4nc32)cc(OC)c1 | inconclusive: 39.8 µM [inhibitor, single point] | – |
| O=C(Nc1cccc(C(F)(F)F)c1)C1CCN(c2nnc(-n3cccc3)s2)CC1 | – | inactive: -7.34% |
| COc1ccc2[nH]cc(CCNc3ncncc3-c3c(C)noc3C)c2c1 | – | inactive: 0.512% |
| CCCc1nc2oc3c(OC)ncnc3c2c2c1COC(C)(C)C2 | inconclusive: 31.6 µM [activator, single point] | – |
| O=C(Cc1ccc(Cl)cc1)Nc1ccc(N2CCN(C(=O)c3ccco3)CC2)c(Cl)c1 | inconclusive: 39.8 µM [inhibitor, single point] | – |
| Cc1ccc2nc(/C(C#N)=C/c3cccc(Br)c3)[nH]c2c1 | active: 20 µM | – |
| Cc1ccc2c(C)nc(N/C(N)=N/S(=O)(=O)c3ccc([N+](=O)[O-])cc3)nc2c1 | inconclusive: 39.8 µM [inhibitor, single point] | – |
| O=C(Cc1csc2ccccc12)NCc1cccc(Br)c1 | – | inactive: -2.77% |
| C[C@H](NC(=O)[C@@H]1C[C@H]1[C@@H](NC(=O)OCc1ccccc1)c1ccccc1)c1ccccc1 | active: 15.8 µM | – |
| COC(=O)COc1cc(OCC(=O)OC)c2c(C)c(Cl)c(=O)oc2c1 | inconclusive: 25.1 µM [activator, partial curve] | – |
| CCCN(CCC)CCCNC(=O)c1cc2c(=O)oc3ccc(C)cc3c2s1 | – | inactive: -8.69% |
| Cn1c(N)c(C(=O)COC(=O)c2cc(C3CC3)nc3ccccc23)c(=O)n(C)c1=O | inconclusive: 39.8 µM [activator, single point] | – |
| Cc1ccc(CN2CCSc3ccc(C(=O)Nc4ccc(Cl)cc4)cc32)cc1 | active: 7.94 µM | – |
| COc1cccc(CNC(=O)Cn2c(=O)oc3cc(S(=O)(=O)N4CCCC4)ccc32)c1 | – | inactive: 13.8% |
| Cc1cc(=O)oc2cc(OCc3ccc(C(=O)N4CCN(c5ccc([N+](=O)[O-])cc5)CC4)cc3)ccc12 | active: 12.6 µM | – |
| COc1cccc(CNC(=O)c2nnn(CC(=O)Nc3cc(Cl)ccc3C)c2N)c1 | inconclusive: 39.8 µM [inhibitor, single point] | – |
| COCCn1c(=N)c(C(=O)NCc2ccco2)cc2c(=O)n3ccccc3nc21 | inconclusive: 31.6 µM [activator, single point] | – |
| CCOC(=O)N1CCC(NC(=O)c2ccc3c(c2)N(Cc2cccc(C)c2)C(=O)c2ccccc2S3(=O)=O)CC1 | inconclusive: 39.8 µM [activator, single point] | – |

Reference: PubChem BioAssay AID1476 (National Center for Advancing Translational Sciences (NCATS), 2009)
